Experiment [1] addresses ASGPR (as used in the SPR of Table 7) (Homo sapiens (Human)) (UniProt P07306). Briefly: SPR.
The target in experiment [2] is Deglycosylated IgA (dg-IgA) (human) (UniProt P01876). Briefly: cell-based or functional assay.
For the next experiment, the target named is Total IgA. Briefly: cell-based or functional assay.
The target in experiment [3] is Deglycosylated IgA (dg-IgA) (human) (UniProt P01876). Briefly: BLI, dg-IgA on Protein L tips.
For experiment [4], the target named is Dimeric dg-IgA (Alexa Fluor 594 conjugate, SEC fraction) (human) (UniProt P01876). The experiment can be described thus: cell-based or functional assay.
Experiment [5] has as its target Monomeric dg-IgA (Alexa Fluor 594 conjugate, SEC fraction) (human) (UniProt P01876). Briefly: cell-based or functional assay.
The target in experiment [6] is Tetrameric dg-IgA (Alexa Fluor 594 conjugate, SEC fraction) (human) (UniProt P01876). The experiment can be described thus: cell-based or functional assay.
Experiment [7] deals with Deglycosylated IgA (dg-IgA) (human) (UniProt P01876). The experiment can be described thus: SPR, dg-IgA amine-coupled to CM5. A general note: Surface plasmon resonance follows binding to a sensor surface in real time, without labels.
For experiment [8] the target is unchanged. Briefly: SPR (Biacore S200), dg-IgA amine-coupled to CM5 chip, single-cycle, steady-state fit, two replicates.

Where only a bound is given, the exact number is not on record here.

B1: AGN01G (ABT010 conjugated with MAT007) (antibody, human IgG1, kappa)
heavy: ELQLQESGPGLVKPSQSLSLTCSVTGYSIRSNYWGWIRKFPGNKMEWMGYITYSGGTYYNPSLKSRISITRDTSKNQFFLQLTSVTTEDTATYYCTRWGDWYFDFWGPGTKVTVSP[letters of human IgG1 constant region not shown]
light: DVVLTQTPPPLSVAIGQSVSISCKSSQSLVHTDGKTYLHWLLQSPGQSPKLLIYQVSNLGSGVPDRFSGTGSQKDFTLKISRVEAEDLGVYYCVQATHFPLTFGIGTKLELQRTVAAPSVFIFPPSDEQLKSGTASVVCLLNNFYPREAKVQWKVDNALQSGNSQESVTEQDSKDSTYSLSSTLTLSKADYEKHKVYACEVTHQGLSSPVTKSFNRGEC
modifications: MATE reagent MAT007 (ASGPR binder PR3) conjugated; site not stated for this agent
As a reminder, the Kd is the constant that tells how readily two partners part at equilibrium. Read a high Kd as weaker binding. Take B1: the Kd in experiment [1] stood at 0.0863 nM. Moreover, in experiment [2], the EC50, Assay #2, uptake of A594-labelled cargo by HEK293 (+ASGPR) cells worked out at 1.07 nM; the EC50, Assay #3, uptake of A594-labelled cargo by HEK293 (+ASGPR) cells came to 1.27 nM; the High MFI, Assay #1, uptake of A594-labelled cargo by HEK293 (+ASGPR) cells is 25800 MFI; the High MFI, Assay #2, uptake of A594-labelled cargo by HEK293 (+ASGPR) cells amounted to 72400 MFI. In [2], the High MFI, Assay #3, uptake of A594-labelled cargo by HEK293 (+ASGPR) cells turned out to be 83500 MFI; the S/N, Assay #1, uptake of A594-labelled cargo by HEK293 (+ASGPR) cells (signal-to-noise ratio) is 330; the S/N, Assay #2, uptake of A594-labelled cargo by HEK293 (+ASGPR) cells (signal-to-noise ratio) is 660; the S/N, Assay #3, uptake of A594-labelled cargo by HEK293 (+ASGPR) cells (signal-to-noise ratio) amounted to 911. In the experiment with Total IgA, this molecule gave an EC50, Assay #1, uptake of A594-labelled cargo by HEK293 (+ASGPR) cells of 86.3 nM; an EC50, Assay #2, uptake of A594-labelled cargo by HEK293 (+ASGPR) cells of 7.39 nM; an EC50, Assay #3, uptake of A594-labelled cargo by HEK293 (+ASGPR) cells of 20.6 nM; a High MFI, Assay #1, uptake of A594-labelled cargo by HEK293 (+ASGPR) cells of 74.7 MFI. For the same molecule, in the experiment with Total IgA, the High MFI, Assay #2, uptake of A594-labelled cargo by HEK293 (+ASGPR) cells came to 364 MFI; the High MFI, Assay #3, uptake of A594-labelled cargo by HEK293 (+ASGPR) cells turned out to be 2100 MFI; the S/N, Assay #2, uptake of A594-labelled cargo by HEK293 (+ASGPR) cells (signal-to-noise ratio) was determined as 806. For the same molecule, the Kd in experiment [3] was 0.298 nM.

B2: AGN01E (ABT010 conjugated with MAT005) (antibody, human IgG1, kappa)
heavy: B1 heavy
light: B1 light
modifications: MATE reagent MAT005 (ASGPR binder desOH2) conjugated; site not stated for this agent
With B2, the Kd is 0.0379 nM in [1] and 0.329 nM in experiment [3].

B3: AGN02B (ABT020 conjugated with MAT002) (antibody, human IgG1, kappa)
heavy: ELQLQESGPGLVKPSQSLSLTCSVTGYSIRSNYWGWIRKFPGNKMEWMGYITYSGGTYYNPSLKSRISITRDTSKNQFFLQLTSVTTEDTATYYCTRWGDWYFDFWGPGTKVTVSP[letters of human IgG1 constant region with changes not shown]
light: B1 light
modifications: MATE reagent MAT002 (ASGPR binder βGN2) conjugated; site not stated for this agent
Molecule B3 gave a Kd in experiment [3] of 0.253 nM.

B4: AGN03A (ABT030 conjugated with MAT001) (antibody, human IgG1, kappa)
heavy: ELQLQESGPGLVKPSQSLSLTCSVTGYSIRSNYWGWIRKFPGNKMEWMGYITYSGGTYYNPSLKSRISITRDTSKNQFFLQLTSVTTEDTATYYCTRWGDWYFDFWGPGTKVTVSPASTKGPSVFPLAPSSKSTSGGTAALGCLVKDYFPEPVTVSWNSGALTSGVHTFPAVLQSSGLYSLSSVVTVPSSSLGTQTYICNVNHKPSNTKVDKKV[letters of human IgG1 Fc with changes not shown]
light: B1 light
modifications: Linker and ASGPR binder (MAT001, βGN3) attached via a stable amide connection at Lys248 (heavy chain K247 in the linear numbering); BAR = 2 at about 87% ; Chain 1 pos 247 (EU Lys248): Lys carries the linker and the tris-GalNAc ASGPR binder (MAT001, βGN3) through an amide bond, written K. It is on both heavy chains (BAR = 2, about 87%). The letters cannot carry the ligand.
In [2], B4 showed an EC50, Assay #1, uptake of A594-labelled cargo by HEK293 (+ASGPR) cells of 2.52 nM; an EC50, Assay #2, uptake of A594-labelled cargo by HEK293 (+ASGPR) cells of 1.75 nM; an EC50, Assay #3, uptake of A594-labelled cargo by HEK293 (+ASGPR) cells of 1.38 nM; a High MFI, Assay #1, uptake of A594-labelled cargo by HEK293 (+ASGPR) cells of 6190 MFI. In [2], the High MFI, Assay #2, uptake of A594-labelled cargo by HEK293 (+ASGPR) cells turned out to be 22800 MFI; the High MFI, Assay #3, uptake of A594-labelled cargo by HEK293 (+ASGPR) cells amounted to 28500 MFI; the S/N, Assay #1, uptake of A594-labelled cargo by HEK293 (+ASGPR) cells (signal-to-noise ratio) was determined as 72; the S/N, Assay #2, uptake of A594-labelled cargo by HEK293 (+ASGPR) cells (signal-to-noise ratio) came out at 201. Also, in experiment [2], the S/N, Assay #3, uptake of A594-labelled cargo by HEK293 (+ASGPR) cells (signal-to-noise ratio) is 222. Also, in experiment [4], the EC50 (nM), endocytosis by HEK293 cells transfected with ASGPR1 came out at 0.48 nM; the High MFI, endocytosis by HEK293 cells transfected with ASGPR1 is 115000 MFI; the S/N, endocytosis by HEK293 cells transfected with ASGPR1 (signal-to-noise ratio) turned out to be 140. Besides, in experiment [5], the EC50 (nM), endocytosis by HEK293 cells transfected with ASGPR1 was 3.93 nM; the High MFI, endocytosis by HEK293 cells transfected with ASGPR1 stood at 94400 MFI; the S/N, endocytosis by HEK293 cells transfected with ASGPR1 (signal-to-noise ratio) turned out to be 679. For the same molecule, in experiment [6], the EC50 (nM), endocytosis by HEK293 cells transfected with ASGPR1 worked out at 0.37 nM; the High MFI, endocytosis by HEK293 cells transfected with ASGPR1 was found to be 120000 MFI; the S/N, endocytosis by HEK293 cells transfected with ASGPR1 (signal-to-noise ratio) was 57.9. Besides, in the experiment with Total IgA, the EC50, Assay #1, uptake of A594-labelled cargo by HEK293 (+ASGPR) cells turned out to be 55.3 nM; the EC50, Assay #2, uptake of A594-labelled cargo by HEK293 (+ASGPR) cells stood at 27.4 nM; the EC50, Assay #3, uptake of A594-labelled cargo by HEK293 (+ASGPR) cells came to 9.87 nM; the High MFI, Assay #1, uptake of A594-labelled cargo by HEK293 (+ASGPR) cells was 83.9 MFI. In addition, in the experiment with Total IgA, the High MFI, Assay #2, uptake of A594-labelled cargo by HEK293 (+ASGPR) cells was found to be 91.4 MFI; the High MFI, Assay #3, uptake of A594-labelled cargo by HEK293 (+ASGPR) cells turned out to be 132 MFI; the S/N, Assay #2, uptake of A594-labelled cargo by HEK293 (+ASGPR) cells (signal-to-noise ratio) stood at 101. For the same molecule, the Kd in [3] came out at 0.234 nM. Moreover, in [7], the Kd is greater than 100 nM. This molecule also had a Kd in [8] of 19 nM.

B5: AGN01H (ABT010 conjugated with MAT008) (antibody, human IgG1, kappa)
heavy: B1 heavy
light: B1 light
modifications: MATE reagent MAT008 (ASGPR binder TFP1) conjugated; site not stated for this agent
As to B5, the Kd in [3] came out at 0.282 nM.

B6: AGN02A (ABT020 conjugated with MAT001) (antibody, human IgG1, kappa)
heavy: ELQLQESGPGLVKPSQSLSLTCSVTGYSIRSNYWGWIRKFPGNKMEWMGYITYSGGTYYNPSLKSRISITRDTSKNQFFLQLTSVTTEDTATYYCTRWGDWYFDFWGPGTKVTVSP[letters of human IgG1 constant region with changes not shown]
light: B1 light
modifications: MATE reagent MAT001 (ASGPR binder βGN3) conjugated; site not stated for this agent
Molecule B6 displayed a Kd in [3] of 0.253 nM. The Kd values of the last two molecules are within 1.5-fold of each other.

B7: AGN01I (ABT010 conjugated with MAT009) (antibody, human IgG1, kappa)
heavy: B1 heavy
light: B1 light
modifications: MATE reagent MAT009 (ASGPR binder TFP1) conjugated; site not stated for this agent
B7: the Kd in experiment [3] worked out at 0.304 nM.

B8: AGN01B (ABT010 conjugated with MAT002) (antibody, human IgG1, kappa)
heavy: B1 heavy
light: B1 light
modifications: MATE reagent MAT002 (ASGPR binder βGN2) conjugated; site not stated for this agent
B8: the results for the Kd in [1] and in experiment [3] were 1.17 nM and 0.296 nM, respectively.

B9: AGN01F (ABT010 conjugated with MAT006) (antibody, human IgG1, kappa)
heavy: B1 heavy
light: B1 light
modifications: MATE reagent MAT006 (ASGPR binder desOH1) conjugated; site not stated for this agent
With B9, the Kd amounted to 8.12 nM in experiment [1] and 0.331 nM in [3].

These data come from patent US20250228957A1.
